Results: paper PMC4336329 (PLoS ONE, 2015)
In all, about 310,000 compounds went through this assay and about 2,200 (0.71%) showed an effect of 50% or more. The effect is printed as a negative number. Some of the results follow.

Each compound was assayed against human ether-à-go-go-related gene (hERG) potassium channel (human, UniProt Q12809) (assay: primary screen, population patch clamp on CHO cells stably expressing hERG).
Chain of human ether-à-go-go-related gene (hERG) potassium channel (Q12809 whole entry, looked up): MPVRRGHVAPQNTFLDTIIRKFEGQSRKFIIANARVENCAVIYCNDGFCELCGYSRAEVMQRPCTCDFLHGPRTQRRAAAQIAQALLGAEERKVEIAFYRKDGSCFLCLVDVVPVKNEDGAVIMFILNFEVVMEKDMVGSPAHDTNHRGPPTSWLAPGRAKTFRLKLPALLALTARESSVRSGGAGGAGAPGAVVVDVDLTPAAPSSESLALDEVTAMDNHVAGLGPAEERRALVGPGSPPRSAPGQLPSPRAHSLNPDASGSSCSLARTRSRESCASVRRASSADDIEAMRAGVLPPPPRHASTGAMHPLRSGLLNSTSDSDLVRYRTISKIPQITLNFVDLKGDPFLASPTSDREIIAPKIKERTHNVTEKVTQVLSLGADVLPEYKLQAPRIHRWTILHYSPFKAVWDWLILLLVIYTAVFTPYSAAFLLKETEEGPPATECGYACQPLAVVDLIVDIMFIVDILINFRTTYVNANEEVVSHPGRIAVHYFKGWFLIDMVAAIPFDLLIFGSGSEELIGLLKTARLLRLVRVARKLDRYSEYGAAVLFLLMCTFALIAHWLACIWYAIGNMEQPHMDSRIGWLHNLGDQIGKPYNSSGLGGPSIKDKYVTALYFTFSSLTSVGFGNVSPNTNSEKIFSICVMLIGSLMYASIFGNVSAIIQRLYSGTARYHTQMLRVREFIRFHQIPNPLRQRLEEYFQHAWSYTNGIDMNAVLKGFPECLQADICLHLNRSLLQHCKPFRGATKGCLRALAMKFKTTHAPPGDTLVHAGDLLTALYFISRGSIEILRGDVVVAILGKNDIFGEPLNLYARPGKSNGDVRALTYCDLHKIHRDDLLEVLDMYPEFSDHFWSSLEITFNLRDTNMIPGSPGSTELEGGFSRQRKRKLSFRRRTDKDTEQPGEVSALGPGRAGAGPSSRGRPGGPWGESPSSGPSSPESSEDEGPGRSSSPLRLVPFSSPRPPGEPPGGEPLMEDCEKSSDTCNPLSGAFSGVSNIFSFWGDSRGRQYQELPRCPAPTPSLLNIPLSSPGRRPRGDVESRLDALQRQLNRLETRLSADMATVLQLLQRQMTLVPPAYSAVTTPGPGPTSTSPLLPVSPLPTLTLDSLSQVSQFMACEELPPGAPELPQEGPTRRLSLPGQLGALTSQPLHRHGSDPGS

First: Cc1ccccc1CN1CCN(c2ccc(S(=O)(=O)N3CCCC3)cn2)CC1
Second: COc1ccc(S(=O)(=O)N2CCCCC2)cc1NC(=O)CNc1ccccc1N1CCCC1=O
The “hERG current change (%, negative = inhibition) at 1uM” value of the first is higher: 7.73% for the first, 3.71% for the second.

Going from `CCN(CC)S(=O)(=O)c1ccc(N2CC(C(=O)NCc3ccc4c(c3)OCO4)CC2=O)cc1` (centres unmarked) to `CCOc1ccc(N2CC(C(=O)NCc3ccc4c(c3)OCO4)CC2=O)cc1` (centres unmarked), the “hERG current change (%, negative = inhibition) at 1uM” value falls from 8.58% to 4.68%.

Going from `COc1ccc(C(CNC(=O)COc2ccc(Br)cc2F)N2CCCC2)cc1` (centres unmarked) to `Cc1ccc(OCCC(=O)Nc2ccc(S(=O)(=O)N3CCCC3)cc2)cc1`, the “hERG current change (%, negative = inhibition) at 1uM” value rises from -17.1% to 4.2%.

Compared with `CCc1sc(C(=O)NCc2ccco2)cc1Br`, `CCc1oc2ccccc2c1C(=O)c1cc(Br)c(O)c(Br)c1` is higher in “hERG current change (%, negative = inhibition) at 1uM” value: 2.94% for the first, 5.26% for the second.

Compared with `O=C(c1cccs1)N(Cc1nc2sc3c(c2c(=O)[nH]1)CCCC3)C1CCCC1`, `O=C(COc1ccc2c3c(c(=O)oc2c1)CCCC3)N1C[C@H]2C[C@@H](C1)c1cccc(=O)n1C2` is lower in “hERG current change (%, negative = inhibition) at 1uM” value: 7.7% for the first, -6% for the second.

First: CCCCC1C2C(=O)N(c3ccc(C)cc3)C(=O)C2ON1c1ccccc1 (centres unmarked)
Second: Cc1ccc(-n2c3c(c(O)c(-c4ccccc4)c2=O)C(=O)CC(C)(C)C3)cc1
The “hERG current change (%, negative = inhibition) at 1uM” value of the first is higher: 8.84% for the first, -0.0154% for the second.

First: COc1cccc(-c2cc(=O)c3cc(NC(=O)c4ccc(N(C)C)cc4)ccc3[nH]2)c1
Second: COc1cc(NC(=O)c2ccc(OC)c([N+](=O)[O-])c2)ccc1NC(=O)c1cccs1
The “hERG current change (%, negative = inhibition) at 1uM” value of the first is higher: 8.36% for the first, -6.07% for the second.

Compared with `O=C(NC(CCl)c1ccccc1)c1ccc(Cl)cc1` (centres unmarked), `S=C(NCc1ccc(Cl)cc1Cl)Nc1ccccc1` is lower in “hERG current change (%, negative = inhibition) at 1uM” value: 10% for the first, 6.02% for the second.

Going from `O=C(Nc1ccc(S(=O)(=O)NC2=NCCCCC2)cc1)c1ccc(=O)[nH]c1` to `Cc1ccnc(NS(=O)(=O)c2ccc(NC(=O)c3ccc(N4C(=O)CCC4=O)cc3)cc2)n1`, the “hERG current change (%, negative = inhibition) at 1uM” value falls from 14.2% to 0.0228%.

Going from `CCOC(=O)c1sc(Nc2ccc(Br)cc2)nc1C` to `CCOC(=O)c1ccc2[nH]c(C)c(C)c2c1`, the “hERG current change (%, negative = inhibition) at 1uM” value falls from 13% to -1.31%.

Going from `CN(CCCNC(=O)c1cc2c(=O)[nH]c3ccccc3c2n1C)Cc1ccccc1` to `OCCCc1nc2ccccc2n1CCc1ccccc1`, the “hERG current change (%, negative = inhibition) at 1uM” value falls from -3.23% to -3.76%.

Compared with `Clc1ccc(CN(Cc2ccc(Cl)cc2)c2nn[nH]n2)cc1`, `CC(NC(=O)c1ccco1)c1nc(-c2ccc(Cl)cc2)no1` (centres unmarked) is lower in “hERG current change (%, negative = inhibition) at 1uM” value: 3.38% for the first, -5.75% for the second.

Going from `CC(C)(C)c1nnc2sc(SCC(=O)N3CCCc4ccccc43)nn2c1=O` to `COc1cc2c(cc1OC)CN(C(C)C(=O)N1CCc3ccccc31)CC2` (centres unmarked), the “hERG current change (%, negative = inhibition) at 1uM” value rises from -2.46% to 5.72%.

Compared with `COC(=O)c1[nH]c2cc(C)ccc2c1NC(=O)CN1CCOCC1`, `Cc1ccc(Nc2cc(C)nc(N3CCOCC3)n2)cc1` is higher in “hERG current change (%, negative = inhibition) at 1uM” value: 7.32% for the first, 11.1% for the second.

Going from `CC(C)Cc1nnc(NC(=O)c2ccc3c(c2)OCCO3)s1` to `Cc1ccc(NC(=O)c2ccc(Br)o2)cc1S(=O)(=O)N(C)C`, the “hERG current change (%, negative = inhibition) at 1uM” value falls from 5.47% to -7.85%.

Going from `COc1ccc(OCCC(=O)Nc2cc(C)on2)cc1` to `COc1ccc(C(=O)CC(Nc2ccc([N+](=O)[O-])cc2)c2ccc(OC)cc2)cc1` (centres unmarked), the “hERG current change (%, negative = inhibition) at 1uM” value falls from 14.2% to 2.46%.

Compared with `Cc1c(C(=O)N2CCOCC2)c(S(=O)(=O)Nc2ccc(C(C)C)cc2)c(C)n1C`, `COc1cccc(/C=C2/SC(=S)N(CCC(=O)N3CCOCC3)C2=O)c1` is lower in “hERG current change (%, negative = inhibition) at 1uM” value: 11.7% for the first, 5% for the second.

First: Cc1ccc(-c2nc3ncccc3o2)cc1NC(=O)c1sc2ccccc2c1Cl
Second: COc1ccccc1NC(=O)c1c(Nc2ccccc2F)sc(C(=O)Nc2cccc(Cl)c2)c1N
The “hERG current change (%, negative = inhibition) at 1uM” value of the first is lower: 1.15% for the first, 2.19% for the second.

Going from `C=CCOc1ccccc1/C=N/O` to `COc1cccc(C(O)Cc2nc3ccccc3n2C)c1OC` (centres unmarked), the “hERG current change (%, negative = inhibition) at 1uM” value rises from -0.514% to 13.8%.

Going from `O=C1C=C(c2cccc(Cl)c2)C[C@@H](c2ccc(F)cc2)C1` to `C/C(=N\N=C(/N)SC1CC(=O)N(c2cccc(Cl)c2)C1=O)c1cccs1` (centres unmarked), the “hERG current change (%, negative = inhibition) at 1uM” value falls from 17.2% to 15.1%.

Going from `COc1ccc2c(Cl)c(C(=O)N/N=C/c3ccncc3)sc2c1` to `COC(=O)CSc1nnc(CNC(=O)c2cc(OC)cc(OC)c2)n1-c1ccc(F)cc1`, the “hERG current change (%, negative = inhibition) at 1uM” value falls from 19.5% to 2.01%.

Compared with `CCOC(=O)C1(CCc2ccccc2)CCN(C(=O)CCn2cnnn2)CC1`, `O=C(COC(=O)c1cc(S(=O)(=O)N2CCCC2)ccc1O)NCCc1ccccc1` is higher in “hERG current change (%, negative = inhibition) at 1uM” value: -0.0487% for the first, 4.91% for the second.

First: Cc1ccc(NC(=O)CCCn2nc(C)c3c(C)n(-c4ccccc4)nc3c2=O)cc1C
Second: Cc1cccc(C)c1OCCSc1nc2ccccc2n1CC(=O)O
The “hERG current change (%, negative = inhibition) at 1uM” value of the first is higher: 11.8% for the first, 11.1% for the second.

Compared with `CCOC(=O)C1CCCN(Cc2ccc(OC)c(OCc3ccccc3)c2)C1` (centres unmarked), `COc1ccc(NC(=S)N2CCC(NC(=O)c3ccccc3C)CC2)cc1` is higher in “hERG current change (%, negative = inhibition) at 1uM” value: -10.5% for the first, 15.7% for the second.

Going from `CCc1cc(C(=O)N2CCCC(N3CCN(c4cccc(C(F)(F)F)c4)CC3)C2)n(C)n1` (centres unmarked) to `CCn1cc(C(=O)N2CCCC2)c(=O)c2cc(S(=O)(=O)N(C)C)ccc21`, the “hERG current change (%, negative = inhibition) at 1uM” value rises from -6.89% to 10.6%.

Going from `O=C(Cn1c(-c2ccccc2)c[n+]2ccsc12)c1ccc(Br)cc1.[Br-]` to `Brc1ccc(-c2noc(CCc3ccccc3)n2)cc1`, the “hERG current change (%, negative = inhibition) at 1uM” value rises from -0.698% to 2.19%.

Compared with `O=C(COC(=O)CNC(=O)c1ccc(F)cc1)Nc1cccc(S(=O)(=O)N2CCCC2)c1`, `Cc1ccc(S(=O)(=O)NNC(=O)c2ccc(F)cc2)cc1` is higher in “hERG current change (%, negative = inhibition) at 1uM” value: 10.2% for the first, 10.8% for the second.

Compared with `CCOC(=O)CSc1nnc(-c2cccc(Cl)c2)n1CC`, `CCCn1c(SCC(=O)c2c(C)[nH]c(C)c2C(=O)OCC)nc2ccccc21` is lower in “hERG current change (%, negative = inhibition) at 1uM” value: 7.11% for the first, 2.93% for the second.

First: CCOc1ccc2oc(=O)cc(CN3CCN(C(=O)c4ccco4)CC3)c2c1
Second: CCN(C(=O)CSc1nc2cc(Cl)ccc2c(=O)n1Cc1ccco1)C1CCS(=O)(=O)C1 (centres unmarked)
The “hERG current change (%, negative = inhibition) at 1uM” value of the first is higher: -46.5% for the first, -70.2% for the second.

Going from `S=C(Nc1ccc2cn[nH]c2c1)Nc1ccccc1Cl` to `COc1ccccc1NC(=O)C(C)Sc1nc(-c2ccccc2)cn1N` (centres unmarked), the “hERG current change (%, negative = inhibition) at 1uM” value falls from 3.81% to -10.9%.

Going from `CC(C)C[C@@H](CC#N)N1CCN(CCc2ccccc2)CCC1=O` to `O=C(CCCN1CCC(n2c(=O)[nH]c3ccccc32)CC1)c1ccc(F)cc1`, the “hERG current change (%, negative = inhibition) at 1uM” value falls from 12.1% to -80.8%.

Going from `CC(=O)N1N=C(c2cccc([N+](=O)[O-])c2)OC1c1ccc(Br)cc1` (centres unmarked) to `Cc1cc(C)n(S(=O)(=O)c2cccc([N+](=O)[O-])c2)n1`, the “hERG current change (%, negative = inhibition) at 1uM” value falls from 13.9% to 6.71%.

Going from `COc1ccccc1NC(=O)COC(=O)Cc1cccs1` to `COC(=O)c1ccccc1NC(=O)Cn1cnc([N+](=O)[O-])c1`, the “hERG current change (%, negative = inhibition) at 1uM” value falls from 11.4% to 10.3%.

First: CSc1ccc(CN2CCC(N3CC(C)OC(C)C3)CC2)cc1.O=C(O)C(=O)O (centres unmarked)
Second: CCN(CC)C(=O)C1CCCN(C(=O)Nc2ccc(NC(=O)N3CCCC(C(=O)N(CC)CC)C3)cc2)C1 (centres unmarked)
The “hERG current change (%, negative = inhibition) at 1uM” value of the first is higher: 6.46% for the first, -6.44% for the second.

First: CCN(CC)CC.COc1ccccc1-n1c(=S)[nH]c2c(sc(=S)n2-c2ccc(C)cc2C)c1=O
Second: CCN(CC)C(=O)c1cn(CC)c(=O)c2cc(OC)c(OC)cc12
The “hERG current change (%, negative = inhibition) at 1uM” value of the first is higher: 11.7% for the first, 3.86% for the second.

Going from `Nc1cc(N)nc(SCc2ccccc2)n1` to `c1ccc(CCNCC2COc3ccccc3O2)cc1` (centres unmarked), the “hERG current change (%, negative = inhibition) at 1uM” value rises from -2.95% to 9.1%.

Compared with `CCOC(=O)c1cnn(CC2CCCCC2)c1N`, `CC1CCCCN1C(=S)NC(=O)c1ccco1` (centres unmarked) is lower in “hERG current change (%, negative = inhibition) at 1uM” value: 5.7% for the first, 5.31% for the second.

Compared with `O=c1c2ccccc2ncn1CCOCCOc1ccc([N+](=O)[O-])cc1`, `O=C(O)CSc1nnc(COc2ccccc2)n1-c1ccccc1` is higher in “hERG current change (%, negative = inhibition) at 1uM” value: -19.8% for the first, -2.34% for the second.

First: CN(C)c1ccc(CNC(=O)C2CCN(S(=O)(=O)c3ccc4c(c3)CCC(=O)N4)CC2)cc1
Second: CC(C)NC(=O)C1CCN(C(=O)c2ccc(-c3ccccc3)cc2)CC1
The “hERG current change (%, negative = inhibition) at 1uM” value of the first is lower: 10.7% for the first, 11.7% for the second.

Going from `COc1cc(/C=N/Nc2nc(=O)[nH]nc2C)cc([N+](=O)[O-])c1O` to `CCOC(=O)c1cccc(COC(=O)c2cccc(-c3nnc(-c4ccccc4)o3)c2)c1`, the “hERG current change (%, negative = inhibition) at 1uM” value falls from 8.92% to 7.84%.

Compared with `CC(=O)Nc1ccc(S(=O)(=O)N2CCN(c3nnnn3-c3ccccc3)CC2)cc1`, `Cc1ccc(S(=O)(=O)c2nnn3c2nc(N2CCN(c4ccccn4)CC2)c2ccccc23)cc1` is higher in “hERG current change (%, negative = inhibition) at 1uM” value: 10.9% for the first, 11.8% for the second.

First: CCCCCSc1nnc(C)c(=O)[nH]1
Second: Cc1cccc(C)c1OC(=O)CCN1C(=O)C2C3C=CC(C4CC34)C2C1=O (centres unmarked)
The “hERG current change (%, negative = inhibition) at 1uM” value of the first is higher: 14% for the first, 6.58% for the second.

First: O=S(=O)([N-]c1nc2ccccc2nc1-[n+]1ccc(Cc2ccccc2)cc1)c1ccc(Br)s1
Second: NC(=O)CSc1nnc(NC(=O)C23CC4CC(CC(C4)C2)C3)s1
The “hERG current change (%, negative = inhibition) at 1uM” value of the first is higher: 3.01% for the first, -0.271% for the second.
